Molecules are shown by their SMILES. The whole screen tested about 45,000 compounds, of which about 200 (0.44%) were called active. About 7% were inconclusive and are not listed. Calls come from the whole dose curve; as a rule, active = well fitted activation curve with a large enough effect; inconclusive = small, poorly fitted or top-dose-only effect; inactive = no such curve, though single readings can be large or run the other way. The list shows a part of the results.

A short description of this assay: qHTS of TDP-43 Inhibitors: NCGC Sytravon Library Screen. Note: 0% is about no effect; nearly all actives have a fitted effect of over 55% in size. The following applies: yeast TDP-43 toxicity rescue, BacTiter-Glo growth, 24 h; series mostly up to 46.1 µM; growth rescue (activation): at the top concentration. The procedure, abridged: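 TDP-43-expressing yeast, pregrown in raffinose, seeded at OD600 0.02 in galactose medium with compound for 24 hr at 30 deg C. Growth read by BacTiter-Glo luminescence, so rescue of toxicity appears as activation.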
On the technique in general: Quantitative high-throughput screening tests each substance at several concentrations.
As to `Cc1ccc(C(=O)Oc2ccc(N3C(=O)CCC3=O)c(C)c2)cc1`, the “growth rescue (activation)” value is inactive: -0.161%. In the case of `O=C(/C=C/c1ccco1)Nc1ccc(N2CCCC2)cc1`, the “growth rescue (activation)” value was inactive: 3.07%.

In the case of `Cc1cc(C(=O)NP(=O)(N2CC(C)OC(C)C2)N2CC(C)OC(C)C2)c(C)n1C1CC1` (stereo unspecified), the “growth rescue (activation)” value was inactive: 7.4%. The same measure for `CC(=O)c1ccc(N(CC(=O)NC2CCCC2)C(=O)c2ccc(C)s2)cc1`: inactive: 2.93%; for `Cc1c(NC(=O)C(C)OC(=O)c2sc3ccccc3c2Cl)c(=O)n(-c2ccccc2)n1C` (stereo unspecified): inactive: 0.669%; for `CC(C)(C)N(Cc1ccccc1)C(=O)COC(=O)c1ccc(N2CCCC2=O)cc1`: inactive: -20.2%. Consider `O=C1COCCOCCOCC(=O)NCCN1`, for which the “growth rescue (activation)” value was inactive: -5.91%. Regarding `CS(=O)(=O)Cc1ccc(C(=O)NC2CCCc3ccccc32)cc1` (stereo unspecified), the “growth rescue (activation)” value was inactive: 0.463%. As to `Clc1cccc(-c2ccc(C=Nc3ccc(N4CCOCC4)cc3)o2)c1Cl`, the “growth rescue (activation)” value is inactive: 10.6%. For the compound `CN(C)c1ccc(/C=N/NC(=O)c2ccccc2Cl)cc1`, the “growth rescue (activation)” value was inactive: -3.75%. Consider `CC(Nc1ccc2c(c1)OCCO2)C(=O)N1CCc2ccccc21` (stereo unspecified), for which the “growth rescue (activation)” value was inactive: 18.7%. Take `O=C1/C(=C/c2cccs2)SC(=S)N1c1cccc(O)c1`: the “growth rescue (activation)” value was inactive: 14.5%. For the compound `O=C(O)c1ccc(/C=N/Nc2ccc(Cl)nn2)cc1`, the “growth rescue (activation)” value was inactive: 7.12%. To `CC(C)C(C)NC(=O)COc1ncnc2sccc12` (stereo unspecified) belongs inactive: 8.69%; to `CC1CCCC(NC(=O)CCn2c(=S)oc3ccccc32)C1C` (stereo unspecified), inactive: 4.06%.

Consider `CC(=O)c1ccc(S(=O)(=O)N2CCC(c3nc4ccccc4[nH]3)CC2)cc1`, for which the “growth rescue (activation)” value is inactive: 14.3%. To `CCCCNC(=O)N1CCN(C(=O)c2ccco2)CC1` belongs inactive: 2.34%; to `COc1cc(N2CCCC2)c(OC)cc1C=O`, inactive: 19.7%; to `COc1ccc(CNS(=O)(=O)NCc2ccccc2)cc1OC`, inactive: -0.802%. Turning to `COc1ccccc1C(=O)OCc1cc(=O)n2ccsc2n1`, the “growth rescue (activation)” value was inactive: 20%. As to `COc1cccc(CNC(=O)C(Cc2ccccc2)n2cccc2)c1` (stereo unspecified), the “growth rescue (activation)” value is inactive: 4.12%.

On to `Cc1ccc(SCC(=O)NNC(=O)c2cncc(Br)c2)cc1`, for which the “growth rescue (activation)” value was inactive: 7.28%. The same measure for `CC(=O)Nc1ccc(S(=O)(=O)N(C)CC(=O)NC2CCCCCCC2)cc1`: inactive: -7.74%. With `OC[C@@H]1CN(Cc2ccco2)C[C@H](n2cnc3c(NC4CCC4)ncnc32)O1`, the “growth rescue (activation)” value was inactive: 1.57%. `O=C(Nc1ccccc1)c1cc(C2CCCN(C(=O)c3ccc4c(c3)CCO4)C2)on1` (stereo unspecified): the “growth rescue (activation)” value was inactive: 11.4%. To `NS(=O)(=O)c1ccc(N/N=C/c2ccncc2)cc1` belongs inactive: 17.7%; to `O=c1[nH]c2cc3c(cc2cc1CN(Cc1ccco1)C(=S)NCC1CCCO1)OCCO3` (stereo unspecified), inactive: 10.8%; to `CN(C)Cc1csc(NC(=O)Nc2cccc(Cl)c2)n1`, inactive: -10.7%.

Regarding `CN(C)c1ccc(/C=N/n2c(C3CCCCC3)n[nH]c2=S)cc1`, the “growth rescue (activation)” value is inactive: -12.4%. The same measure for `CCOC(=O)c1oc2c(c1C)-c1nn(Cc3ccccc3Cl)cc1CC2`: inactive: -0.758%; for `Cc1ncc(CO)c2cc(-c3nnc(Nc4ccc5c(c4)OCO5)s3)c(=O)oc12`: inactive: 25.2%.

For the origin of these results see PubChem BioAssay AID1347073 (National Center for Advancing Translational Sciences (NCATS), 2019).
